Laboratory results as given in the supplement of paper PMC8512760.
The list shows a part of the results. Many values rest on one well or one pass, so single values are uncertain.

Assays:
Assay in all cases: cell viability relative to vehicle (% of vehicle); basal-like triple-negative breast cancer lines; higher = less cytotoxic
Details in all cases: 10 µM; 72 h
HCC-1143 = test system: HCC-1143
HCC-1187 = test system: HCC-1187
MDA-468 = test system: MDA-468
SUM-149 = test system: SUM-149
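Further: stably firefly luciferase-GFP labeled cells in 96-well plates, viability read as luciferase photon flux after d-luciferin addition, treated wells normalized to vehicle wells, single-dose high-throughput screen.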

SMILES	cell viability (HCC-1143)	cell viability (HCC-1187)	cell viability (MDA-468)	cell viability (SUM-149)
COC(=O)C1=COC(OC2OC(CO)C(O)C(O)C2O)C2C(CO)=CCC12 (centres undefined) [Geniposide]	72.4	78.4	119	112
Nc1ccn(C2OC(CO)C(O)C2(F)F)c(=O)n1 (centres undefined) [Gemcitabine]	73.2	53.8	50.5	136
CN1CCN(C2=c3ccccc3=Nc3ccc(Cl)cc3N2)CC1 [Clozapine]	75	98.6	95	79.4
CC(C)C1CCC(C(=O)NC(Cc2ccccc2)C(=O)O)CC1 (centres undefined) [Nateglinide]	110	87.1	96.6	119
CCCCS(=O)(=O)NC(Cc1ccc(OCCCCC2CCNCC2)cc1)C(=O)O.Cl.O (centres undefined) [Tirofiban hydrochloride monohydrate]	106	93.4	91.4	109
CCOC(=O)[C@H](CCc1ccccc1)N[C@@H](C)C(=O)N1[C@H](C(=O)O)C[C@H]2CCCC[C@@H]21 [Trandolapril]	137	94.4	84.8	115
CC(=O)[C@@]1(O)CC[C@H]2[C@@H]3CCC4=CC(=O)CCC4=C3[C@@H](c3ccc(N(C)C)cc3)C[C@@]21C [Ulipristal]	120	107	96.2	109
O=C(C=Cc1cccc(S(=O)(=O)Nc2ccccc2)c1)NO [Belinostat (PXD101)]	43.1	26.9	32.5	113
C#C[C@]1(O)CC[C@H]2[C@@H]3CCC4=CC(=O)CC[C@@H]4[C@H]3C(=C)C[C@@]21CC [Etonogestrel]	78.1	109	129	118
CC(C)(C)NCC(O)COc1cccc2c1CCC(O)=N2.Cl (centres undefined) [Carteolol HCl]	86.5	106	140	117
CN1C2CCC1CC(OC(c1ccccc1)c1ccccc1)C2.CS(=O)(=O)O (centres undefined) [Benztropine mesylate]	97.6	102	110	99.5
Cl.O=C(O)C=Cc1ccc(Cn2ccnc2)cc1 [Ozagrel HCl]	81.7	91.1	112	113
C=CC[C@@H]1/C=C(\C)C[C@H](C)C[C@H](OC)[C@H]2O[C@@](O)(C(=O)C(=O)N3CCCC[C@H]3C(=O)O[C@H](/C(C)=C/[C@@H]3CC[C@@H](O)[C@H](OC)C3)[C@H](C)[C@@H](O)CC1=O)[C@H](C)C[C@@H]2OC [Tacrolimus (FK506)]	83.9	88.8	108	131
CC1CCc2cc(F)cc3c(=O)c(C(=O)O)cn1c23 (centres undefined) [Flumequine]	102	108	103	126
OCC(O)CN1CCN(c2ccccc2)CC1 (centres undefined) [Dropropizine]	66.8	101	105	98.9
Cc1c(Cl)cccc1Nc1ccccc1C(=O)O [Tolfenamic Acid]	110	86.7	107	111
Clc1ccc(C(Cn2ccnc2)OCc2ccc(Sc3ccccc3)cc2)c(Cl)c1.O=[N+]([O-])O (centres undefined) [Fenticonazole Nitrate]	90.1	85	93.1	95.7
CC(C)(C)C(=O)C(Oc1ccc(Cl)cc1)n1ccnc1 (centres undefined) [Climbazole]	79.8	97.1	113	111
CC(C)(Oc1ccc(Cl)cc1)C(=O)O [Clofibric Acid]	68.8	98.2	100	84.4
COC(=O)NC(C(=O)N1CCCC1c1ncc(-c2ccc(-c3ccc(-c4cnc(C5CCCN5C(=O)C(NC(=O)OC)C(C)C)[nH]4)cc3)cc2)[nH]1)C(C)C (centres undefined)	107	106	66.4	96.2
CN1C(C(=O)Nc2ccccn2)=C(O)c2ccccc2S1(=O)=O [Piroxicam]	74	105	114	91.3
CNCc1ccc(-c2[nH]c3cc(F)cc4c3c2CCNC4=O)cc1.O=P(O)(O)O	86.2	76.8	88	195
Cc1ncc([N+](=O)[O-])n1CCO [Metronidazole]	73.6	89.5	102	102
O=C(CCCCCCNC(=O)c1cnc(N(c2ccccc2)c2ccccc2)nc1)NO [Rocilinostat (ACY-1215)]	67.2	76.1	95.2	98
CC12C=CC(=O)NC1CCC1C2CCC2(C)C(C(=O)Nc3cc(C(F)(F)F)ccc3C(F)(F)F)CCC12 (centres undefined) [Dutasteride]	81.5	87.7	86.8	106
CCOC(=O)c1c(CSc2ccccc2)n(C)c2cc(Br)c(O)c(CN(C)C)c12.Cl [Arbidol HCl]	116	131	108	98.6
